The whole screen tested about 280,000 compounds, of which about 100 (0.036%) were called active. This list was built around the results that the source calls inconclusive (neither active nor inactive); the mix of calls is not that of the screen. Calls come from the whole dose curve; as a rule, active = well fitted inhibition curve with a large enough effect in the signal ratio, with a control signal flat (not every such curve was filed as active); inconclusive = small, poorly fitted or top-dose-only effect, or effect the other way, or a change in a side signal; inactive = no such curve, though single readings can be large or run the other way; the % refers to the signal ratio. Where the call is inconclusive, the potency comes from a doubtful curve fit. A note “side channel” means that the fit belongs to a control or component signal, not to the main read-out.
Each compound was assayed against Muscleblind-like protein 1 (Homo sapiens) (UniProt Q9NR56) (assay: qHTS Assay for Inhibitors of MBNL1-poly(CUG) RNA binding). Conditions: TR-FRET MBNL1-His/biotin-(CUG)12 binding, 665/545 ratio; series mostly up to 57.5 µM.
Method in brief: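 His-tagged MBNL1 binding to biotinylated (CUG)12 RNA was measured by TR-FRET using terbium anti-His antibody (0.055 ng/ul final) and streptavidin-XL665 (5 nM final). Compounds were titrated 92 nM to 58 uM; 60 min at room temperature.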
Potency is the fitted concentration of half-maximal effect; tags give direction and shape of the fitted curve or compound fluorescence and quenching.

UniProt Q9NR56, sequence (Q9NR56 whole entry, looked up): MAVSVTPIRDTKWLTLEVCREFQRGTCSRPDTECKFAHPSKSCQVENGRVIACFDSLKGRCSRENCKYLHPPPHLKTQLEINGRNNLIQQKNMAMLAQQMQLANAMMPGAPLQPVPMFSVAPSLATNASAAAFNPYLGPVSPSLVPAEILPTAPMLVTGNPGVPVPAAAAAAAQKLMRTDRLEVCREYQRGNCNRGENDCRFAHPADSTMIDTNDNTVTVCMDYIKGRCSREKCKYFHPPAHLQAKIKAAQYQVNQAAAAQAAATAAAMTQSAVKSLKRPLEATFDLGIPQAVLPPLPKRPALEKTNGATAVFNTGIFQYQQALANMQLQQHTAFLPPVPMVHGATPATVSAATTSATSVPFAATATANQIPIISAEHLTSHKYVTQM

Structure (SMILES)	Potency
CCC(c1nnc(SCCNCCO)n1CCN1CCOCC1)N(C)C (centres undefined)	inactive
Nc1nnnn1/N=C/c1ccccn1	inconclusive: 12.6 µM [quencher, side channel, partial curve]
O=C(c1ccc([N+](=O)[O-])s1)N1CCN(c2ccccn2)CC1	inconclusive: 7.94 µM [quencher, side channel, partial curve]
COc1ccc2[nH]c(=O)c(CNc3ccc(C)cc3C)cc2c1	inconclusive: 25.1 µM [quencher, side channel, partial curve]
COc1ccc(C)cc1NC(=O)C1CCN(S(=O)(=O)c2cccc3nonc23)CC1	inconclusive: 3.55 µM [quencher, side channel, single point]
COc1ccc(C(=O)c2sc(Nc3ccc(NC(C)=O)cc3)nc2C)cc1	inconclusive: 12.6 µM [quencher, side channel, partial curve]
CCOC(=O)c1c(-c2cccc([N+](=O)[O-])c2)csc1N	inconclusive: 8.91 µM [quencher, side channel, partial curve, poor fit]
COC(=O)Cn1c(O)c(N=NC(=O)OC)c2ccccc21	inconclusive: 14.1 µM [quencher, side channel, partial curve]
CCOc1ccc(OCC(=O)c2c(O)c3ccccc3oc2=O)cc1	inactive
O=C(NNc1nc2cc3c(cc2s1)OCO3)c1ccc(F)cc1	inconclusive: 501 µM [inhibitor, partial curve]
CC(C)n1c(=NC(=O)c2ccco2)c(C#N)cc2c(=O)n3ccccc3cc21	inconclusive: 39.8 µM [quencher, side channel, single point]
CC1CCc2nn(CC(=O)NCCCN3CCOCC3)cc2C1 (centres undefined)	inconclusive: 7.08 µM [fluorescent, side channel, partial curve, poor fit]
Cc1cc(C)c2oc(C(=O)Nc3ccc(S(=O)(=O)Nc4nccs4)cc3)cc(=O)c2c1	inconclusive: 22.4 µM [quencher, side channel, single point]
O=S(N1CCCCC1)C12CC3CC(CC(C3)C1)C2 (centres undefined)	inactive
Cc1ccc(S(=O)(=O)c2nc(-c3ccccc3)oc2NCCCN2CCOCC2)cc1	inactive
O=C(Cn1cnc([N+](=O)[O-])n1)c1ccccc1	inconclusive: 28.2 µM [quencher, side channel, single point]
O=C(CCCN1C(=O)/C(=C/c2cccs2)SC1=S)Nc1ccc(C(=O)O)cc1	inconclusive: 15.8 µM [quencher, side channel, partial curve]
CN1CCN(Cc2c(O)c(Cl)cc3c(-c4ccccc4)cc(=O)oc23)CC1	inconclusive: 14.1 µM [quencher, side channel, partial curve]
COCCNc1nc(SCC(=O)N2CCN(c3ccccc3OC)CC2)nc2ccccc12	inactive
CCOc1ccc(CCNC(=O)c2cccs2)cc1OCC	inactive

Structure (SMILES)	Potency
Cc1ccccc1OCCNc1cc(N2CC(C)NC(C)C2)ccc1[N+](=O)[O-] (centres undefined)	inconclusive: 15.8 µM [quencher, side channel, partial curve]
COc1ccc(C(=O)Nc2nc3cc4c(cc3s2)OCO4)c(OC)c1	inconclusive: 3.55 µM [fluorescent, side channel, partial curve]
CCOC(=O)N1CCN(C(=O)C2CCN(C(=O)c3ccc([N+](=O)[O-])cc3)CC2)CC1	inconclusive: 15.8 µM [quencher, side channel, partial curve]
COc1cc(/C=N/NC(=O)c2cc(C3CC3)[nH]n2)cc(OC)c1OC	inconclusive: 31.6 µM [quencher, side channel, single point]
C=CCc1ccc(OCC(O)CN2CCN(c3ccccc3OC)CC2)c(OC)c1 (centres undefined)	inactive
Cc1nc2ccccc2c2c1C(=O)N(C)C2=O	inconclusive: 11.2 µM [quencher, side channel, partial curve]
Cc1cc(NC(=O)CC2CCCC2)ccc1Br	inactive
CCOC(=O)COn1c(=O)c(-c2ccccc2)[n+]([O-])c2ccccc21	inconclusive: 15.8 µM [quencher, side channel, partial curve]
C/C(=N\N=C(N)N)c1cccc([N+](=O)[O-])c1	inconclusive: 17.8 µM [quencher, side channel, partial curve]
Cc1cc(C)c(NC(=O)C2CCCN2CCOC(=O)c2cccc([N+](=O)[O-])c2)c(C)c1 (centres undefined)	inconclusive: 22.4 µM [quencher, side channel, partial curve]
Cc1noc(C)c1CS(=O)(=O)c1ccc([N+](=O)[O-])cc1	inconclusive: 11.2 µM [quencher, side channel, partial curve]
CC(C)CSc1nc2ccccc2n1CC(=O)O	inconclusive: 6.31 µM [inhibitor, single point]
N#Cc1c(-c2ccccc2)cc(-c2cccs2)nc1SCC(=O)O	inconclusive: 44.7 µM [quencher, side channel, single point]
CN1Cc2c(N3CCOCC3)nc(SCCC#N)c(C#N)c2CC1(C)C	inconclusive: 20 µM [quencher, side channel, single point]
CC(c1ccccc1)N(CCC(c1ccccc1)C1CCOC(C)(C)C1)C(=O)c1ccco1 (centres undefined)	inconclusive: 0.199 µM [fluorescent, side channel, partial curve]
O=C(O)CC/C(=N/Nc1ccc([N+](=O)[O-])cc1)C(=O)O	inconclusive: 25.1 µM [quencher, side channel, partial curve]
O=C(COC(=O)c1ccc2ccccc2n1)Nc1cccc(S(=O)(=O)NC2=NCCCCC2)c1	inconclusive: 25.1 µM [quencher, side channel, partial curve]
O=C(NCc1ccco1)c1cccn2c(=O)c3c4c(sc3nc12)CCCC4	inconclusive: 8.91 µM [quencher, side channel, partial curve, poor fit]
O=[N+]([O-])c1cc(C(F)(F)F)ccc1-n1nnc2ccccc21	inconclusive: 35.5 µM [quencher, side channel, partial curve, poor fit]
CCOC(=O)c1c(NC(=O)CSc2nc3c(c(=O)n(C)c(=O)n3C)n2C(C)C)sc(C)c1C	inactive

Structure (SMILES)	Potency
CCN(CC)c1ccc(/C=N/NC(=O)c2cccc(N3CCCC3=O)c2)cc1	inconclusive: 35.5 µM [quencher, side channel, single point]
COC(=O)C1=CN(Cc2ccc(OC)c(OC)c2)C=C(C(=O)OC)C1c1ccccc1F	inconclusive: 31.6 µM [quencher, side channel, single point]
O=C1NCC2=C1C(c1ccccc1)Nc1ccccc1N2 (centres undefined)	inconclusive: 12.6 µM [quencher, side channel, partial curve]
Cc1noc(NS(=O)(=O)c2ccc(N/C=C\C(=O)c3cccs3)cc2)c1C	inconclusive: 15.8 µM [quencher, side channel, partial curve]
CCc1ccc(/C=c2\s/c(=C\C(=O)C(C)(C)C)[nH]c2=O)cc1	inconclusive: 11.2 µM [quencher, side channel, partial curve]
Cc1ccc(C)c(N2CCN(C(=O)C3CCN(S(=O)(=O)c4cccc5nsnc45)CC3)CC2)c1	inconclusive: 15.8 µM [quencher, side channel, partial curve]
O=C(Cn1c(-c2cscn2)nc2ccccc21)Nc1ccccc1F	inconclusive: 39.8 µM [fluorescent, single point]
COc1ccc(CCNC(=O)c2cc3c(=O)n4cccc(C)c4nc3n(Cc3ccco3)c2=N)cc1OC	inconclusive: 6.31 µM [quencher, side channel, partial curve]
C=C1SC(Nc2c(C)cccc2C)=NC12CCCCC2	inactive
Cc1ccc2c(c1)C(O)(C1COC(C)(C)CC1=O)C(=O)N2C (centres undefined)	inconclusive: 25.1 µM [quencher, side channel, partial curve]
CSc1ccccc1-c1n[nH]c(=S)o1	inconclusive: 15.8 µM [fluorescent, side channel, partial curve]
c1cnc2c(OCc3nc4ccccc4[nH]3)cccc2c1	inactive
Cc1nn2c(-c3cccnc3)ccnc2c1-c1ccccc1	inconclusive: 3.55 µM [quencher, side channel, full curve]
COCCNC(=O)/C(C#N)=C/c1c(N2CCN(C)CC2)nc2c(C)cccn2c1=O	inconclusive: 15.8 µM [quencher, side channel, partial curve]
N/C(=N/OC(=O)c1ccccc1Cl)c1ncc([N+](=O)[O-])s1	inconclusive: 7.08 µM [quencher, side channel, partial curve]
O=[N+]([O-])c1ccc(N2CCCCC2)c(-c2nn[nH]n2)c1	inconclusive: 28.2 µM [quencher, side channel, partial curve]
COc1ccc2c(c1)S/C(=C\C(=O)c1ccncc1)N2C	inconclusive: 7.08 µM [quencher, side channel, partial curve]
O=C(COc1ccccc1)Nc1c(Cl)ccc2nsnc12	inconclusive: 7.94 µM [quencher, side channel, partial curve]
CCC(=O)Nc1cccc(C(=O)/C=C/c2cc(Br)ccc2OC)c1	inactive

— PubChem BioAssay AID2675 (National Center for Advancing Translational Sciences (NCATS), 2010)
